Experimental data taken from paper PMC11066036.
These are yes or no findings as the source states them, for the method shown. In cells and extracts the contact can be indirect. Some results given as binding are weak or reduced against the parent protein; the word gives no strength. Sequences can lack the tags named with a protein.

Protein sequences, listed by entry. Tags and fused reporters are not part of them. Lines headed by an entry give the natural chain unless they say otherwise; changes in a name come on top. Chains listed by the source or under a name are the forms on record and can include a tag or linker. Residues count along the entry.
HPK1 KD only with LgBit tag (Q92918, residues 1-293): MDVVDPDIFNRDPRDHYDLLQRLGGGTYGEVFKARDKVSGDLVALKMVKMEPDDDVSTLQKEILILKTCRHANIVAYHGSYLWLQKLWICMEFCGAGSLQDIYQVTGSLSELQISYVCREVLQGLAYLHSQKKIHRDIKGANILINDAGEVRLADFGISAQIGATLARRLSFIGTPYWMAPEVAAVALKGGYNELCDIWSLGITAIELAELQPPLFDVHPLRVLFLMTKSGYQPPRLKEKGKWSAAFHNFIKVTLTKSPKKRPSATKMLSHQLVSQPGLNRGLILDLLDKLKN
HPK1 CHD + 3PRs with LgBit tag (Q92918, form named): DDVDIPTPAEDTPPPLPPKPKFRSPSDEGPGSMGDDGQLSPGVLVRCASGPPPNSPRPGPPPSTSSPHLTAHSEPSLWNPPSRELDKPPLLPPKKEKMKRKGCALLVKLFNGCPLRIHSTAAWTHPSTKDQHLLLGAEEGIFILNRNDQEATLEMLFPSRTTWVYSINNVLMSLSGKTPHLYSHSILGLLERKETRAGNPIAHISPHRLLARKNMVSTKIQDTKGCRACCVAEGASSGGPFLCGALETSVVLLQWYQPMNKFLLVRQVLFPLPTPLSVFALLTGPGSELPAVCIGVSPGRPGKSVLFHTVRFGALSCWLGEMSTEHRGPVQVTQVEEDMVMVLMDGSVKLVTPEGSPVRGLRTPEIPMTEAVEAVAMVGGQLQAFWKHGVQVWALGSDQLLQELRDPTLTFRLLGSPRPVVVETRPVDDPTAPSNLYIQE
HPK1 CHD only with LgBit tag (Q92918, form named): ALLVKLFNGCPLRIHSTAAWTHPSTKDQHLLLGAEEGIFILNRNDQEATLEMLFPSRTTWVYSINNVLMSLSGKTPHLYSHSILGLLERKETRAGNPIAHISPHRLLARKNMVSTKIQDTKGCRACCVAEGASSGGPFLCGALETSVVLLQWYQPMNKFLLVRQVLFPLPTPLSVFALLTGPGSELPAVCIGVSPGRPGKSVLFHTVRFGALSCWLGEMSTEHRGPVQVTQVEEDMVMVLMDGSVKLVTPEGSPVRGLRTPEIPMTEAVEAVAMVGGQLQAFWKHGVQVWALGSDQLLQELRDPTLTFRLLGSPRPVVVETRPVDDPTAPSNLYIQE
HPK1 Y381A with LgBit tag (Q92918, form named): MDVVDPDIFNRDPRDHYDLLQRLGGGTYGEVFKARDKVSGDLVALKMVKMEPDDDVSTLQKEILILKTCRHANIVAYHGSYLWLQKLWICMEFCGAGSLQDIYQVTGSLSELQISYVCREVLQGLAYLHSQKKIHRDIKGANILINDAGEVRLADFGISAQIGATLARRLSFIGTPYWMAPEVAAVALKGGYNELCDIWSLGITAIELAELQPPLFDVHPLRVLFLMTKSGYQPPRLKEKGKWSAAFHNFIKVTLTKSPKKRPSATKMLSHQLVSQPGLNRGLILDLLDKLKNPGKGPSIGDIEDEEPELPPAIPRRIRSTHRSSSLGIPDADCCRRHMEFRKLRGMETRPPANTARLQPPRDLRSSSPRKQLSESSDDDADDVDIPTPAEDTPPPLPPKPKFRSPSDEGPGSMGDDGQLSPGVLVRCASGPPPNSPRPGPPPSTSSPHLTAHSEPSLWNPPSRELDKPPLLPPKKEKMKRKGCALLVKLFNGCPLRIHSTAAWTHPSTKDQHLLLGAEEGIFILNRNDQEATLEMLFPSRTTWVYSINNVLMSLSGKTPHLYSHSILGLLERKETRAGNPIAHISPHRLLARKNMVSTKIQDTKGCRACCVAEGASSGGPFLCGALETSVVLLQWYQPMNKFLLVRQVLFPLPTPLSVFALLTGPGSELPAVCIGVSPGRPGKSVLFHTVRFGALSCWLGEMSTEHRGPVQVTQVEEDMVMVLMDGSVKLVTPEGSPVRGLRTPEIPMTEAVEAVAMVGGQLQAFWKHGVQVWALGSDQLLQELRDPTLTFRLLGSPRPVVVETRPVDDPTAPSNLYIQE
full-length wild-type HPK1 with NanoBit tag (Q92918, form named): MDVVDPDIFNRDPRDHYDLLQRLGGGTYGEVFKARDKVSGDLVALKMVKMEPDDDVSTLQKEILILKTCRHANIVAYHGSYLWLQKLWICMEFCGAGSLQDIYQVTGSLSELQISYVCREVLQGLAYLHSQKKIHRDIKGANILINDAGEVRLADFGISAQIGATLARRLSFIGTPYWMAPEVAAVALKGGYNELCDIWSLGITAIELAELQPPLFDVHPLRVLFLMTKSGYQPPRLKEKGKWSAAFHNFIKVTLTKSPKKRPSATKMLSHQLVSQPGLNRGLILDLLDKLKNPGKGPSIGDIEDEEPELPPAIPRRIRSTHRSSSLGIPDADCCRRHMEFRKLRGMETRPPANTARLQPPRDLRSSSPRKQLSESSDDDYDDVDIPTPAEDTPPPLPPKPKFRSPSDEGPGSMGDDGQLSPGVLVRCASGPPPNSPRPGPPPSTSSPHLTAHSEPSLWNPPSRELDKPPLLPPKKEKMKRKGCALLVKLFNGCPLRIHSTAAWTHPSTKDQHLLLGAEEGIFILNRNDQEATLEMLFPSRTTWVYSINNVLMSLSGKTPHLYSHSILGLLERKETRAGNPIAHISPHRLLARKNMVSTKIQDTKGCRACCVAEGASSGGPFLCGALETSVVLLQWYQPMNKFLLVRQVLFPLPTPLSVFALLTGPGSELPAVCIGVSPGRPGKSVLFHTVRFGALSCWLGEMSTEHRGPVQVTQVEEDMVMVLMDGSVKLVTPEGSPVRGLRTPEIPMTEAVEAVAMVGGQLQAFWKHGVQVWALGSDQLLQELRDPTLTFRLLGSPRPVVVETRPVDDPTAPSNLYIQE

Tests used:
Assay in all cases: split reporter; NanoBit in live HPK1-/- Jurkat cells transiently transfected with SmBit-tagged SLP76 and LgBit-tagged HPK1 forms; luminescence over time, with or without TCR stimulation (anti-CD3 and anti-IgG)
[1] = target: HPK1 CHD + 3PRs with LgBit tag (UniProt Q92918)
[2] = target: HPK1 CHD only with LgBit tag (UniProt Q92918)
[3] = target: HPK1 KD only with LgBit tag (UniProt Q92918)
[4] = target: HPK1 Y381A with LgBit tag (UniProt Q92918)
[5] = target: HPK1 ΔCHD + MAP4K3-CHD with LgBit tag (UniProt Q92918)
[6] = target: full-length wild-type HPK1 with NanoBit tag (UniProt Q92918)

B1: SLP76 with SmBit tag (protein, UniProt Q13094 1-533)
chain: MALRNVPFRSEVLGWDPDSLADYFKKLNYKDCEKAVKKYHIDGARFLNLTENDIQKFPKLRVPILSKLSQEINKNEERRSIFTRKPQVPRFPEETESHEEDNGGWSSFEEDDYESPNDDQDGEDDGDYESPNEEEEAPVEDDADYEPPPSNDEEALQNSILPAKPFPNSNSMYIDRPPSGKTPQQPPVPPQRPMAALPPPPAGRNHSPLPPPQTNHEEPSRSRNHKTAKLPAPSIDRSTKPPLDRSLAPFDREPFTLGKKPPFSDKPSIPAGRSLGEHLPKIQKPPLPPTTERHERSSPLPGKKPPVPKHGWGPDRRENDEDDVHQRPLPQPALLPMSSNTFPSRSTKPSPMNPLPSSHMPGAFSESNSSFPQSASLPPYFSQGPSNRPPIRAEGRNFPLPLPNKPRPPSPAEEENSLNEEWYVSYITRPEAEAALRKINQDGTFLVRDSSKKTTTNPYVLMVLYKDKVYNIQIRYQKESQVYLLGTGLRGKEDFLSVSDIIDYFRKMPLLLIDGKNRGSRYQCTLTHAAGYP
In the case of B1, the binding [1] is reported as “no binding”, the binding [2] is reported as “no binding” and the binding [3] is reported as “no binding”. For the same binder, the binding [4] was “no binding”, the binding [5] was “binds” and the binding [6] was “binds”.
